From the supplement of paper PMC9446081
Hit rate of the full screen: of about 39,000 compounds, about 220 (0.56%) showed activity. The list shows a part of the results.
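Further: static incubation at 37 °C against the wild-type strain, values averaged over two biological replicates.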

Each compound was assayed on Escherichia coli K-12 BW25113 (assay: relative growth (OD600 normalised to plate interquartile mean) (fraction); higher = less growth inhibition, active = 0.2 or less). Settings: 50 µM; LB; incubation time: overnight (16-24 h).
In the case of `C[C@@H]1CN([C@H](C)CO)C(=O)c2cc(NS(=O)(=O)c3cn(C)cn3)ccc2O[C@H]1CN(C)CC1CC1`, the relative growth is reported as inactive: 0.994.
`COc1ccc(S(=O)(=O)N(C)C[C@@H]2Oc3ccc(NS(=O)(=O)c4cn(C)cn4)cc3CC(=O)N([C@@H](C)CO)C[C@@H]2C)cc1` was tested, and the relative growth was inactive: 0.984.
For `COc1ccc(NC(=O)N(C)C[C@H]2Oc3ccc(NC(=O)CCCN(C)C)cc3C(=O)N([C@H](C)CO)C[C@H]2C)cc1`, the relative growth was inactive: 0.977.
For `Cc1ccc(S(=O)(=O)Nc2ccc3c(c2)CC(=O)N([C@H](C)CO)C[C@@H](C)[C@H](CN(C)S(=O)(=O)c2cn(C)cn2)O3)cc1`, the relative growth was inactive: 0.982.
For `COc1ccc(CN(C)C[C@H]2OCCCC[C@H](C)Oc3ccc(NC(=O)c4ccccc4)cc3C(=O)N([C@@H](C)CO)C[C@H]2C)cc1`, the relative growth was inactive: 0.992.
With `Cn1cccc1[C@@H](CN)N1CCCC1` the relative growth was inactive: 0.985.
For `C[C@@H]1CN([C@H](C)CO)C(=O)c2cc(NC(=O)c3ccccc3)ccc2O[C@@H](C)CCCCO[C@H]1CN(C)C(=O)C1CCCCC1`, the relative growth was inactive: 1.
With `CSC1=N[C@@]2(C)CCCC[C@@H]2c2c1ccc1ccccc21` the relative growth was inactive: 1.01.
For `CC12CCC3c4ccc(O)cc4CCC3C1CCC2OC(=O)CCC1CCCC1` (stereo not drawn), the relative growth was inactive: 1.18.
With `C[C@H]1CN([C@@H](C)CO)S(=O)(=O)c2ccc(-c3cccnc3)cc2O[C@@H]1CN(C)C(=O)NC1CCCC1` the relative growth was inactive: 1.
For `COC(=O)C1=CO[C@@H](O[C@@H]2O[C@H](CO)[C@@H](O)[C@H](O)[C@H]2O)[C@H]2[C@@H]1[C@H](O)C[C@]2(C)O`, the relative growth was inactive: 0.981.
With `C[C@@H]1CN([C@H](C)CO)C(=O)c2cccc(NC(=O)c3nc4ccccc4s3)c2O[C@H]1CN(C)Cc1ccc(Cl)c(Cl)c1` the relative growth was inactive: 1.06.
In the case of `C[C@@H]1CCCCO[C@H](CN(C)S(C)(=O)=O)[C@@H](C)CN([C@H](C)CO)C(=O)c2cc(NC(=O)Nc3ccc(C(F)(F)F)cc3)ccc2O1`, the relative growth is reported as inactive: 1.06.
In the case of `O=C(C[C@@H]1CC[C@H]2[C@@H](COC[C@@H](O)CN2S(=O)(=O)c2ccc(Oc3ccccc3)cc2)O1)NCCN1CCCCC1`, the relative growth is reported as inactive: 0.98.
`CC(C)NC(=O)Nc1cccc2c1O[C@@H](CN(C)C(=O)NC1CCCCC1)[C@@H](C)CN([C@H](C)CO)C2=O` was tested, and the relative growth was inactive: 0.977.
In the case of `CCNC(=O)C[C@H]1CC[C@@H](NC(=O)C2CC2)[C@@H](CO)O1`, the relative growth is reported as inactive: 1.02.
For `CC1(C)C[C@@](CCN)(Cc2ccccc2)CCO1`, the relative growth was inactive: 1.02.
With `C[C@H](CO)N1C[C@H](C)[C@@H](CN(C)C(=O)Nc2cccc3ccccc23)Oc2ccc(NC(=O)C3CCCCC3)cc2CC1=O` the relative growth was inactive: 1.
